# PubChem BioAssay AID588855 (National Center for Advancing Translational Sciences (NCATS), 2011)
# The whole screen tested about 410,000 compounds, of which about 5,000 (1.2%) were called active. Inconclusive means that the source gave no clear call. Such entries were picked first, then a sample of the others. Calls come from the whole dose curve; as a rule, active = well fitted inhibition curve with a large enough effect; inconclusive = small, poorly fitted or top-dose-only effect; inactive = no such curve, though single readings can be large or run the other way. Potencies beside an inconclusive call are fits to weak or partial responses and may not hold up.
# Test: qHTS for Inhibitors of TGF-b; note: nearly all actives have a fitted effect of over 65% in size
# Details: HepG2 CAGA-GFP TGF-b/SMAD3 reporter, GFP fluorescence, 18 h, TGF-beta stimulated, 500 pg/mL final; series mostly up to 46.1 µM; activity, negative = inhibition: at the top concentration
# In short: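 HEPG2 CAGA-GFP reporter cells (1000/well, DMEM with 1% FBS) received compounds, then recombinant TGF-beta at 500 pg/mL final for 18 hours at 37 degrees C. Per-cell GFP summed per well was normalised to unstimulated and stimulated DMSO controls before curve fitting.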
# % is set by controls: 0 for no effect and ±100 for the full control effect; potency is the fitted concentration of half-maximal effect; tags give direction and shape of the fitted curve.
SMILES,"activity, negative = inhibition",Potency
COc1ccc(-c2cc(=O)oc3cc(OC(=O)C4CCCCC4)c(Cl)cc23)cc1,inactive: -0.72%,
Cc1cc(C)c(NC(=O)/C(=C/c2ccco2)c2ccccc2)c(C)c1,inactive: 12.8%,
COc1ccccc1CNS(=O)(=O)c1ccc(F)c(C(=O)Nc2cc(Cl)ccc2OC)c1,,"inconclusive: 6.31 µM [inhibitor, full curve]"
COc1ccccc1N1CCN(C(=S)Nc2ccc(S(=O)(=O)N3CCOCC3)cc2)CC1,,"inconclusive: 35.5 µM [inhibitor, single point]"
O=C(NCC(c1cccnc1)N1CCc2ccccc2C1)C(=O)Nc1ccccc1 (stereo unspecified),,"inconclusive: 28.2 µM [inhibitor, partial curve, poor fit]"
CCOC(=O)c1ccc(NC(=S)N(CCCN(CC)CC)Cc2ccco2)cc1,inactive: -1.27%,
O=C(O)c1cc([N+](=O)[O-])ccc1NCCCc1ccccc1,inactive: -17.9%,
Cc1cccc(OCCSc2nc(-c3cccs3)nc3cc(=O)[nH]n23)c1,inactive: -1.05%,
COc1ccc(S(=O)(=O)N2CCN(C)CC2)cc1,inactive: -2.56%,
COc1cccc(CNC(=O)C2CCN(S(=O)(=O)N3CCC(C)CC3)CC2)c1,,"inconclusive: 15.8 µM [inhibitor, single point]"
CCCCCCCCNc1nc(Cl)nc(NCCN2CCOCC2)n1,inactive: 1.44%,
CC1(C(=O)Nc2cnc3ccccc3c2)CCN1CCc1ccccc1 (stereo unspecified),,"inconclusive: 11.2 µM [inhibitor, single point]"
CC1CCN(S(=O)(=O)c2ccc3nc(Nc4ccc(C#N)cc4)ccc3c2)CC1,,active: 10 µM
Nc1ccnn1Cc1cccnc1,inactive: 3.99%,
O=C(NCc1ccccc1OC(F)(F)F)C1CCC(=O)N(CCc2ccccn2)C1 (stereo unspecified),inactive: 20.4%,
Cc1ncc(CO)c(/C=N/NC(=S)Nc2cccc(Cl)c2)c1O,,"inconclusive: 12.6 µM [inhibitor, partial curve, poor fit]"
CCCCC(=O)OC1=C(C(=O)c2ccccc2)N(CC)S(=O)(=O)c2ccccc21,,"inconclusive: 35.5 µM [inhibitor, single point]"
CC(C)n1c(C(=O)OCC(=O)NCc2ccc3c(c2)OCO3)cc2occc21,,"inconclusive: 3.16 µM [inhibitor, partial curve, poor fit]"
O=C(c1cccc(C(F)(F)F)c1)N1CCN(S(=O)(=O)c2ccc(Cl)s2)CC1,,"inconclusive: 35.5 µM [inhibitor, single point]"
CCCCN(C=O)c1c(CC)nc2c(OCc3cccc(Cl)c3)cccn12,,"inconclusive: 31.6 µM [inhibitor, single point]"
CN(CC(=O)Nc1ccc(Cl)c(C(F)(F)F)c1)C(=O)c1ccccc1SCC(=O)N1CCCC1,,"inconclusive: 35.5 µM [inhibitor, single point]"
